The source of these data is PubChem BioAssay AID360 (National Center for Advancing Translational Sciences (NCATS), 2006).

Screen size: about 48,000 compounds; about 550 (1.1%) were called active. Roughly 4% stayed inconclusive and do not appear here. Rule as the data show it: active = potency below about 15 µM; inconclusive = mostly about 16 µM to 33 µM; inactive = weaker than that. This is one part of the list.
Potency is read from the fitted curve at half-maximal effect.

Chain of UniProt P04062 (P04062 whole entry, looked up): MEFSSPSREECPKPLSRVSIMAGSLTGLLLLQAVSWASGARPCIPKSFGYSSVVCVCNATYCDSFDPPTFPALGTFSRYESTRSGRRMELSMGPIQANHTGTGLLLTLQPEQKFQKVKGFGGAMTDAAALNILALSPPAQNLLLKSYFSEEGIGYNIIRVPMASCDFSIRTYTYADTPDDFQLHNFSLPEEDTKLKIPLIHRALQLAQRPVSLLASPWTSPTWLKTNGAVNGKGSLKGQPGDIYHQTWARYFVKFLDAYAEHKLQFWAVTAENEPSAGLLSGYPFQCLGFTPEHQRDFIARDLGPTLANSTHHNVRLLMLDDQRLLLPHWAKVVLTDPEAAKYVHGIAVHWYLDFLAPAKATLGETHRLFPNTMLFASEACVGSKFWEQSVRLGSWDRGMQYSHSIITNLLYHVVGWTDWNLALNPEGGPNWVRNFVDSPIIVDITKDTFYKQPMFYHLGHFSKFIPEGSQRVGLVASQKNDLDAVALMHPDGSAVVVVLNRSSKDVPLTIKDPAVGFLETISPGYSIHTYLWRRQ

In the experiment the target is Lysosomal acid glucosylceramidase (Homo sapiens) (UniProt P04062). Description: Glucocerebrosidase.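 Also: the screen sought inhibitors.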 The following applies: purified enzyme, resorufin glucoside fluorescence (screen aimed at inhibitors), 20 min. In short, it runs like this:
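Compounds titrated against 0.2 nM normal enzyme, 30 uM resorufin beta-D-glucopyranoside substrate, citrate/phosphate buffer with taurocholate and tween-20, pH 5.9. Reaction ran 20 min at room temperature; fluorescence (Ex 548/Em 600) gave AC50.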
As for `CN(c1ccccc1)S(=O)(=O)c1ccc(C(=O)OCC(=O)N2CCOCC2)cc1`, the Potency was inactive: > 76.9 µM. Turning to `Cc1ccc(NC(=O)c2cc(S(=O)(=O)N3CCOCC3)ccc2F)c(C)c1`, the Potency was inactive: > 76.9 µM. On to `COc1ccccc1NC(=O)c1ccccc1NS(C)(=O)=O`, for which the Potency is inactive: > 76.9 µM. For the compound `CCC(C(=O)N1CCc2cc(OC)c(OC)cc2C1)c1ccccc1` (centres undefined), the Potency was inactive: > 76.9 µM. With `Cc1ccc(C(=O)N2CCCC2)cc1S(=O)(=O)Nc1ccccc1`, the Potency is inactive: > 76.9 µM. On to `Cc1cc(C)n(-c2nc3c(c(=O)[nH]c(=O)n3C)n2Cc2ccc(F)cc2)n1`, for which the Potency is inactive: > 76.9 µM. Then `CC(=O)Nc1ccc(C(=O)NC2CCCC2)cc1`, with inactive: > 76.9 µM; and `COc1ccc(-n2c(Cc3cccn3C)nnc2SCC(=O)NCCc2ccccc2)cc1`, with inactive: > 76.9 µM. Then `O=C(NC1C2CC3CC(C2)CC1C3)C1CC1` (centres undefined), with inactive: > 76.9 µM; and `CN1C(=O)N(C)C2(CC1(C)C)CC(C)(C)N(C)C(=O)N2C`, with inactive: > 76.9 µM; and `CCOc1ccc(C(=O)NCc2cccs2)cc1`, with inactive: > 76.9 µM. For the compound `Cn1c(SCC(=O)N2CCOCC2)nnc1-c1ccccc1`, the Potency was inactive: > 76.9 µM. As for `CC(C(=O)Nc1ccccc1-c1ccccc1)N1CCOCC1` (centres undefined), the Potency is inactive: > 76.9 µM.

As to `CCn1c(SCC(=O)N2CCCc3ccccc32)nc2ccccc2c1=O`, the Potency is inactive: > 76.9 µM. As for `CC1(C)C(c2cccs2)=NC(c2ccccc2)N1O` (centres undefined), the Potency is inactive: > 76.9 µM. The value for `CSc1nc(-c2ccccc2)nc(N2CCCC2)c1C(C)=O` was inactive: > 76.9 µM. For `CCOC(=O)COc1ccc(S(=O)(=O)NCc2cccnc2)cc1`, the Potency is inactive: > 76.9 µM.

For the compound `CCNC(=O)c1sc(-c2ccccc2)nc1C`, the Potency was inactive: > 76.9 µM. As to `CCN(CC)C(=O)c1sc2nc(-c3ccccn3)[nH]c(=O)c2c1C`, the Potency was inactive: > 76.9 µM. As for `COc1cc(NC(=O)c2ccco2)c(OC)cc1NC(=O)CCC(=O)Nc1cc(C)ccc1C`, the Potency was inactive: > 76.9 µM. Then `CCCCCCC(=O)NCC(=O)OCC(=O)c1ccccc1`, with inactive: > 76.9 µM.

As to `NC(=O)c1ccc(OCC(F)(F)C(F)(F)C(F)(F)C(F)(F)C(F)(F)C(F)F)cc1`, the Potency entry was “inactive”.

Consider `O=C(CSc1nnc2n(C3CCCC3)c(=O)c3ccccc3n12)N1CCCCCC1`, for which the Potency is inactive: > 76.9 µM.

For `O=C(NCc1ccccn1)c1ccc(N2CCCC2=O)cc1`, the Potency is inactive: > 76.9 µM. With `C=CCNC(=O)C(C)N1C(=O)c2ccccc2C1=O` (centres undefined), the Potency is inactive: > 76.9 µM. `O=C(Nc1nc2c(s1)CCCC2)Oc1ccccc1`: the Potency was inactive: > 76.9 µM. Take `Cc1ccc(S(=O)(=O)Nc2ccc(S(=O)(=O)Nc3ncccn3)cc2)cc1`: the Potency is inactive: > 76.9 µM. For `CCOC(=O)c1ccc(N2C(=O)CC(NC3CCN(C(=O)c4ccc(F)cc4)CC3)C2=O)cc1` (centres undefined), the Potency was inactive: > 76.9 µM. In the case of `CCOc1ccc(C2=Nn3cnnc3SC2)cc1`, the Potency was inactive: > 76.9 µM. For the compound `Cc1sc2ncnc(N[C@@H](CCC(=O)O)C(=O)O)c2c1C`, the Potency was inactive: > 76.9 µM. For `CCN(CC)CCN1C(=O)Cn2c(C)c(C)c3cccc1c32`, the Potency was inactive: > 76.9 µM. On to `OCC12COC(c3ccccc3)N1C(c1ccccc1)OC2` (centres undefined), for which the Potency is inactive: > 76.9 µM. For the compound `COCCn1c(C)cc(C(=O)CSc2nnc3scc(-c4ccc(Cl)cc4)n23)c1C`, the Potency was inactive: > 76.9 µM. In the case of `COc1ccccc1CNC(=O)C1CCN(S(C)(=O)=O)CC1`, the Potency was inactive: > 76.9 µM. As to `CCN(CC)S(=O)(=O)c1cc(C(=O)Nc2ccccc2C(=O)O)ccc1OC`, the Potency is inactive: > 76.9 µM. On to `COCCOc1ccc(C(F)(F)F)cc1Nc1nc2ccccc2o1`, for which the Potency entry is “inactive”. As to `CCn1cc(C(=O)O)c(=O)c2cc(S(=O)(=O)N(C)C)ccc21`, the Potency was inactive: > 76.9 µM. Regarding `CN(CC(=O)NCc1ccc2c(c1)OCO2)S(=O)(=O)c1ccc(Br)s1`, the Potency is inactive: > 76.9 µM. As to `c1ccc(-c2oc3ncnc(NCCN4CCOCC4)c3c2-c2ccccc2)cc1`, the Potency was active: 13.3 µM. Then `COc1ccc2c(-c3ccccc3)cc3nnnn3c2c1`, with inactive: > 76.9 µM; and `CCCCc1cc(=O)oc2cc(C)cc(OCc3nn[nH]n3)c12`, with inactive: > 76.9 µM; and `CCOc1cc(C2C(C#N)=C(N)OC3CCCC(=O)C32)ccc1OCCN1CCOCC1` (centres undefined), with inactive: > 76.9 µM. For `CC(=O)OCN(C#N)c1nc(N(C)C)nc(N(C)C)n1`, the Potency was inactive: > 76.9 µM. Regarding `CCN1/C(=C/C(=O)c2ccco2)Sc2ccccc21`, the Potency was inactive: > 76.9 µM. Then `c1ccc2[nH]c(SCc3ccc(-c4nnco4)cc3)nc2c1`, with inactive: > 76.9 µM; and `CC(C)CCn1c(CN(C)Cc2ccccc2)nc2c1c(=O)n(C)c(=O)n2C`, with inactive: > 76.9 µM.

In the case of `CCOc1cc(C2NC(=O)N(C)C(C)=C2C(=O)OC)cc(Br)c1O` (centres undefined), the Potency was inactive: > 76.9 µM. Take `CCC(=O)N1CCc2cc(S(=O)(=O)NC(Cc3ccccc3)C(=O)NC3CCCC3)ccc21` (centres undefined): the Potency is inactive: > 76.9 µM.

For `O=C(Nc1ccccc1N1CCCC1)c1cccnc1`, the Potency is inactive: > 76.9 µM. As for `O=C(CCCOc1ccc(Cl)cc1Cl)NCCCO`, the Potency was inactive: > 76.9 µM.

On to `O=C(Nc1ccc(-c2nc3ccccc3[nH]2)cc1)C1CCCO1` (centres undefined), for which the Potency entry is “inactive”. As to `CCCOC(=O)c1ccc2c(c1)C(=O)N(c1ccccc1)C2=O`, the Potency was inactive: > 76.9 µM.

In the case of `O=C(Nc1cccc(F)c1)c1cccc(S(=O)(=O)N2CCOCC2)c1`, the Potency is inactive: > 76.9 µM. Consider `CCOc1ccccc1N1CCN(C(=O)c2c(C)noc2C)CC1`, for which the Potency was inactive: > 76.9 µM.

For the compound `COc1cccc(Nc2ncc(C(=O)O)c3ccccc23)c1`, the Potency is inactive: > 76.9 µM. For `O=C(O)C1C2C=CC(C2)C1C(=O)N1CCc2ccccc21` (centres undefined), the Potency was inactive: > 76.9 µM. Regarding `Cc1cc(C(=O)CN2C(=O)NC3(CCCCC3)C2=O)c(C)n1Cc1ccc2c(c1)OCO2`, the Potency entry is “inactive”. With `COCCCNC(=O)CCc1nc2cccnc2n1Cc1ccc(OC)cc1`, the Potency was inactive: > 76.9 µM. As to `O=C(Cn1nnc2ccccc2c1=O)NCc1ccco1`, the Potency was inactive: > 76.9 µM.
